In all, about 2,800 compounds went through this assay and fewer than 10 were called active. Calls come from the whole dose curve; as a rule, active = well fitted curve in the direction sought with a large enough effect; inconclusive = small, poorly fitted or top-dose-only effect, or another doubt; inactive = no such curve, though single readings can be large or run the other way. Some of the results follow.
Target: Metallo-beta-lactamase type 2 (Klebsiella pneumoniae) (UniProt C7C422)
Test: qHTS to identify inhibitors of the New Delhi Metallo-beta-lactamase (NDM): Meropenem screen against the machine-based learning selections. Note: % of control where 0% means no effect.
Conditions: Purified NDM-1, meropenem hydrolysis, absorbance 300 nm; at 38.4 µM (top of the series) unless noted
In short: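 NDM-1 (2 nM final) in 50 mM HEPES pH 7.0, 1 uM Zn2SO4, 0.01% Tween20 was preincubated with compounds for >30 min. Nitrocefin (16.7 uM final) was read at 485 nm after 15 min, and meropenem (50 uM final) at 300 nm after 30 min.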

UniProt C7C422, sequence (C7C422 whole entry, looked up): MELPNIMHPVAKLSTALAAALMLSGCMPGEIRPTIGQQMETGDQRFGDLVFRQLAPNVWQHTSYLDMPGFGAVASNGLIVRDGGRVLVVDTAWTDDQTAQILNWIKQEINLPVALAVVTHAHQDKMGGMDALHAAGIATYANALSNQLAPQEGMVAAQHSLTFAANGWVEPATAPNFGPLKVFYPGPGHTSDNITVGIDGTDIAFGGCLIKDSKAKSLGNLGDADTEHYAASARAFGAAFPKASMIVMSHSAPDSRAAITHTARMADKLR

Activity change, negative = inhibition, inactive:
Clc1ccc(Cn2ccnc2-c2cc3n(n2)CCCNC3)cc1Cl 42.3%
O=C(Nc1cccc(-c2nnc3n2CCCC3)c1)c1ccc[nH]c1=O -0.28%
COc1ccc(NC(=O)c2ccnc(-c3nnc4ccc(Nc5ccccc5)nn34)c2)cn1 10.9% [at 57.5 µM]
Cc1ccccc1-c1nccn2c(C3CN(Cc4ccc(O)cc4)C3)ncc12 -0.872% [at 57.5 µM]
CC(C)NC(=O)N1CCOc2ccc(CCC(N)=O)cc2C1 -1.46%
Cc1ccc(S(=O)(=O)Nc2ccc(C)n(CC(=O)NC(C)c3ccccc3)c2=O)cc1 (stereo not given) 39.1%
O=C(O)c1cc(-c2ccc3cc[nH]c3c2)cc(S(=O)(=O)N2CCSCC2)c1 21.7%
O=C(NC[C@H]1O[C@@H](CO)[C@@H](O)[C@H]1N1CCN(c2cccc(C(F)(F)F)c2)CC1)Nc1ccc(F)cc1F 61.8%
CN(C)c1cccc(-c2cnc3[nH]cc(CC(=O)NCc4cccnc4)c3c2)c1 10.2% [at 57.5 µM]
c1ccc(CNc2cc3c(cn2)CN(Cc2cccnc2)CCN3)cc1 -1.61% [at 57.5 µM]
CC(C)C[C@@H]1N[C@H](C(=O)N(C)CCC#N)Cc2c[nH]c3cccc1c23 3.98% [at 57.5 µM]
O=C(NCc1nnnn1-c1ccccc1)C1NCCc2[nH]cnc21 (stereo not given) 28.7%
O=C(c1cccc(F)c1)N1CCCC2(C1)NC(=O)N(Cc1ccc(Cl)cc1)C2=O (stereo not given) 0.583%
COCc1ccc(C(=O)N2CC[C@](C)(O)[C@H](C)C2)s1 -0.373%
CCS(=O)(=O)N1CCOC[C@H](Oc2ccc(C(F)(F)F)cn2)C1 0.519% [at 57.5 µM]
Cc1ccnn1CCC(=O)Nc1nn(C)c2cccc(N3CCOCC3)c12 6.17%
CC[C@H]1CN(C(=O)NC2CCCCC2)CC[C@H]1CC(=O)Nc1ccccc1 -2.52% [at 57.5 µM]
c1ccc(OCCNc2nc(-c3cccnc3)nc3c2CCNCC3)cc1 -2.67%
CCN(Cc1ccc(C)o1)C(=O)c1ccc2nc(-c3ccc(F)cc3)cn2c1 0.14%
CC(C)C[C@@H]1N[C@H](C(=O)NCCOc2ccccc2)Cc2c[nH]c3cccc1c23 6.71% [at 57.5 µM]
CC(C)(C)c1ccc(C(=O)Nc2ccc(C(O)[C@H]3COCC(=O)N3)cc2)cc1 (stereo not given in full) -0.0206% [at 57.5 µM]
OC(c1ccccc1)c1nc(Nc2ccc(C(F)(F)F)cc2)n[nH]1 (stereo not given) 2.15% [at 57.5 µM]
CCNC(=O)N[C@H]1[C@H](O)[C@@H](N(C)CCN(C)C)[C@@H]2OC[C@H]1O2 7.92% [at 57.5 µM]
COC(=O)N1CCCCC(NC(=O)CCCc2nc(-c3ccccc3C)no2)C1 (stereo not given) 0.122%
CCC(C)NC(=O)CC1Sc2ncccc2N(C)C1=O (stereo not given) 4.3%
O=C(Nc1ccc(-c2nnc3n2CCCC3)cc1)C1CC1 -0.0277%
COc1ccccc1C(=O)Nc1ccnn1C1CCN(C(=O)[C@@H](N)CO)CC1 53.7%
COC(=O)c1[nH]nc2c1C(c1ccc(OC)c(OC)c1Cl)CC(=O)N2 (stereo not given) -0.0233%
NC(=O)[C@H](Cc1cccs1)NC(=O)C1=C[C@@H](NC(=O)c2ccc(F)c(Cl)c2)[C@@H](O)[C@H](O)C1 0.292%
N#Cc1cccc(-c2ccnc(N[C@H]3CO[C@H]4[C@@H]3OC[C@@H]4NC(=O)c3ccc(C(F)(F)F)cc3)n2)c1 -0.85%
Clc1cccnc1-c1cc(NCc2ccccn2)nc2[nH]ccc12 -1.51%
O=C(O)C[C@@H]1CCN(C(=O)c2ccco2)C[C@@H]1CCN1CCOCC1 23.8% [at 57.5 µM]
COc1ccc(CN2C(=O)CO[C@H](c3ccc(NC(=O)c4ccccc4OC)cc3)[C@H]2CO)cc1 2.01%
CCS(=O)(=O)c1ccc2oc([C@H]3CCN(Cc4c[nH]c5ccccc45)C3)nc2c1 3.33% [at 57.5 µM]
CN1CCC(NC(=O)Cc2c[nH]c3ncc(-c4ccccc4)cc23)CC1 -1.82% [at 57.5 µM]
C=CCNC(=O)[C@@H]1Cc2cn(Cc3ccncc3)c3cccc(c23)[C@H](CC(C)C)N1 5.07% [at 57.5 µM]
CC(C)CCCC1CN(C(=O)c2c(O)cccc2O)CCO1 (stereo not given) 1.74%
Cc1nccn1CC(=O)N1CCC2(CC1)CNC(C(=O)O)C2 (stereo not given) 34.4%
O=C(Cc1c[nH]c2ncc(-c3ccncc3)cc12)NCc1cccnc1 4.44% [at 57.5 µM]
Fc1cccc(Nc2cnc3ccc(-c4ccccc4)nn23)c1 11.1% [at 57.5 µM]
CC1(CNCc2ccccc2)COc2ccc(C(=O)Nc3cccnc3)cc2N1 (stereo not given) 3.29% [at 57.5 µM]
COc1ccc(CN2CCOC[C@H](OC)C2)cn1 0.0913% [at 76.7 µM]
Cc1ccsc1-c1[nH]nc2ncc(-c3cccc(O)c3)nc12 1.53% [at 57.5 µM]
FC(F)(F)Oc1ccc(-c2cnc([C@@H]3COCCN3Cc3ccncc3)[nH]2)cc1 -3.64% [at 57.5 µM]
N[C@@H](Cc1cnc[nH]1)C(=O)N1CCC2(CC1)CN(CCOc1ccccc1)C(=O)O2 16.5%
NC(=O)C1(N2CCCCC2)CCN(Cc2cc3n(n2)CCNC3)CC1 58.6%
Cc1cc(-c2ccccc2)nc(CN2CC[C@@](O)(C3CCC3)[C@H](C)C2)n1 1.38%
OC1(c2csc(CN3CCOCC3)n2)CCN(CC2CCCCC2)CC1 -0.222% [at 57.5 µM]
Cc1nc2c(c(-c3ccc(Cl)cc3)n1)CCN(C(=O)C1CC1)CC2 0.249%
O=C(O)c1cncc(N2CCC3(CC2)CNC(C(=O)O)C3)n1 (stereo not given) 42.7%

Reference: PubChem BioAssay AID1794842 (National Center for Advancing Translational Sciences (NCATS), 2023)
